Data taken from PubChem BioAssay AID504339 (National Center for Advancing Translational Sciences (NCATS), 2011).
Several values for one entry are separate records, joined by “and”; a condition that tells them apart may be missing. Equal entries are not always repeated. Screen size: about 390,000 compounds; about 17,000 (4.4%) were called active. Inconclusive means that the source gave no clear call. Such entries were picked first, then a sample of the others. The call rests on the fitted dose curve; in most records, active means well fitted inhibition curve with a large enough effect; inconclusive means small, poorly fitted or top-dose-only effect; inactive means no such curve, though single readings can be large or run the other way. Potencies of inconclusive entries are doubtful fits and often do not repeat.

target: Lysine-specific demethylase 4A (Homo sapiens) (UniProt O75164); assay: qHTS Assay for Inhibitors of JMJD2A-Tudor Domain; conditions: AlphaScreen JMJD2A-Tudor / H3K4me3 peptide binding; activity change, negative = inhibition: at 114 µM (top of the series); further: nearly all actives have a fitted effect of over 50% in size
On the % scale 0 is the no-effect control and ±100 the full control effect; potency means the concentration at half of the fitted maximal effect; tags describe the fitted curve by direction and shape.

UniProt O75164, sequence (O75164 whole entry, looked up, the tested form may be a part): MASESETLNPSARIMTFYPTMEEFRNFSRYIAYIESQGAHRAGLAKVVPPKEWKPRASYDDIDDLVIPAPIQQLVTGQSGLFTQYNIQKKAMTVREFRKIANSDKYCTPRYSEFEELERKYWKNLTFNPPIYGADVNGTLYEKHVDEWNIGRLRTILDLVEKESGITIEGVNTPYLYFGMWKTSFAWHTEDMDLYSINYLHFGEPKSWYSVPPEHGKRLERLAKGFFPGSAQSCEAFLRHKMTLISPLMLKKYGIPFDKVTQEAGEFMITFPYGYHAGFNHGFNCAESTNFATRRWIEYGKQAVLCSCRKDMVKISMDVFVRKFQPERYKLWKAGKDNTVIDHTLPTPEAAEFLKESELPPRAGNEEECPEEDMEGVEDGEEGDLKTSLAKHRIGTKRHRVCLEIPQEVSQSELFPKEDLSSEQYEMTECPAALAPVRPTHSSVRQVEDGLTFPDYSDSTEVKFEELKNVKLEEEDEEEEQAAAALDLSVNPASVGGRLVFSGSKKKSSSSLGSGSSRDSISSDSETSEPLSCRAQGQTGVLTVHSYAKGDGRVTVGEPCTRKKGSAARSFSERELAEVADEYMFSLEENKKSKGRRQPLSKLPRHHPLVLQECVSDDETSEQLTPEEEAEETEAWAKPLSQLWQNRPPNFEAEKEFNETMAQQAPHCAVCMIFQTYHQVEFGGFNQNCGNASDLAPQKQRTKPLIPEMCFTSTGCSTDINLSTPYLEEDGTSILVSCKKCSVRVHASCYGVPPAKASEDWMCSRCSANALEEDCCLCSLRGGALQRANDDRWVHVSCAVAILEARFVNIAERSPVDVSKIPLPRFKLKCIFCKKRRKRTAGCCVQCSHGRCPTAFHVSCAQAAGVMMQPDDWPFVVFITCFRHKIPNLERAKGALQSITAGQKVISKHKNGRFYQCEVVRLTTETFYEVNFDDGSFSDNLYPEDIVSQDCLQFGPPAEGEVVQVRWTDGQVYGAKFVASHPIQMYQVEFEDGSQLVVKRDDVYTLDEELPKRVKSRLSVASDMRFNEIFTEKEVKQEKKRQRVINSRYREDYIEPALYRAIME

Potency, inconclusive:
COC(=O)Sc1nc(N2CCOCC2)c2c(c1C#N)CC(C)(C)OC2 89.1 µM [inhibitor, single point], CC(C)c1ccc(C2(O)C(=O)Nc3cc(Br)ccc32)c(O)c1 (stereo not drawn) 14.1 µM [inhibitor, single point], COc1ccc(NC(=O)CSc2nnc(-c3nnn(-c4ccc(F)cc4)c3C)o2)cc1 15.8 µM [inhibitor, full curve, poor fit], O=c1c2ccc([N+](=O)[O-])cc2ncn1CCOc1ccc(Cl)cc1 39.8 µM [inhibitor, partial curve], Cc1ccc(C)c(Cn2c(=O)n(CCCC(=O)NCc3ccco3)c(=O)c3sccc32)c1 39.8 µM [inhibitor, single point], O=S(=O)(c1cccs1)N1CN(Cc2ccco2)c2nc3ccccc3nc21 25.1 µM [inhibitor, full curve, poor fit], COc1ccc(CC(=O)N/N=C/c2cc([N+](=O)[O-])cc(Br)c2O)cc1 79.4 µM [inhibitor, partial curve], CC(C)(C)c1ccc(Cn2nnc3c(=O)[nH]c(C4CCCN(C(=O)c5ccco5)C4)nc32)cc1 (stereo not drawn) 22.4 µM [inhibitor, full curve, poor fit], COC(=O)c1cccc(Nc2c(-c3cc(Br)ccc3O)nc3nc[nH]n23)c1 89.1 µM [inhibitor, single point], CC1CN(c2ncnc3c2c(-c2ccccc2)cn3-c2ccc(F)cc2)CC(C)O1 (stereo not drawn) 44.7 µM [inhibitor, partial curve], COc1ccc(NC(=O)C2CC3C=CC2C3)c([N+](=O)[O-])c1 (stereo not drawn) 39.8 µM [inhibitor, full curve, poor fit], CCOCc1cnc(C)nc1NCC(=O)c1c(C)[nH]c2ccc(OC)cc12 20 µM [inhibitor, full curve, poor fit], COc1ccc(-n2cc(-c3ccc4c(c3)OCO4)n(CC(=O)Nc3cccc(C)c3)c2=O)cc1 5.62 µM [inhibitor, full curve], CCCCC1CCC(CCCC(C)CCC(=O)O)CC1 (stereo not drawn) 56.2 µM [inhibitor, partial curve], CCC1CCc2sc(C(=O)NCC(c3ccc(OC)cc3)N3CCOCC3)cc2C1 (stereo not drawn) 79.4 µM [inhibitor, partial curve], COc1cccc(Cn2c(NCc3ccco3)nc3c2c(=O)n(C)c(=O)n3C)c1 89.1 µM [inhibitor, single point], CCc1cccc(NS(=O)(=O)c2cc(-c3cnc(C)o3)ccc2OC)c1 79.4 µM [inhibitor, partial curve], CC(=O)Oc1ccc(-c2csc(Nc3ccc(S(N)(=O)=O)cc3)n2)cc1 63.1 µM [inhibitor, single point], CCCOc1ccc(C2NC(=S)NC(C)=C2C(=O)c2ccccc2)cc1OC (stereo not drawn) 22.4 µM [inhibitor, single point], N#Cc1nc(COc2ccccc2F)oc1NCCCn1ccnc1 79.4 µM [inhibitor, single point], O=C(COC(=O)CCCc1nc2ccccc2s1)Nc1ncc(Cl)cc1Cl 79.4 µM [inhibitor, partial curve], Cc1ccccc1C(=O)NC(=S)Nc1sc2c(c1C#N)CCCC2 17.8 µM [inhibitor, full curve], CC(=O)Nc1ccc(C(=O)Nc2nc(-c3cc(C)n(Cc4ccccc4)c3C)cs2)cc1 56.2 µM [inhibitor, partial curve], O=C(COC(=O)c1ccccc1)Nc1cccc(S(=O)(=O)NC2=NCCCCC2)c1 39.8 µM [inhibitor, single point], O=C(O)/C(=C\c1ccc(-c2ccccc2[N+](=O)[O-])o1)c1ccccc1 35.5 µM [inhibitor, partial curve], O=C(CN1CCC(C(O)(c2ccccc2)c2ccccc2)CC1)Nc1ccccc1 100 µM [inhibitor, partial curve], Cc1ccc(-c2cn(-c3ccccc3)c(=S)[nH]2)cc1C 3.16 µM [inhibitor, partial curve], COc1cccc(-n2nnnc2SCC(=O)Nc2ccc(C(C)=O)cc2)c1 35.5 µM [inhibitor, single point], O=C(Nc1nnc(SCc2ccccc2Cl)s1)c1cccc([N+](=O)[O-])c1 56.2 µM [inhibitor, partial curve], COc1ccc(-c2cc(C3CCN(C(=O)OC(C)(C)C)CC3)[nH]n2)cc1 89.1 µM [inhibitor, single point], CCOc1cc(C2NN=C(c3ccccc3)S2)ccc1OCc1ccc(F)cc1 (stereo not drawn) 89.1 µM [inhibitor, single point], Cn1cccc1Cc1nnc(SCC(=O)NCc2ccco2)n1CCc1ccccc1 25.1 µM [inhibitor, partial curve], Cc1nn(C)c(C)c1C(C)NC(=O)c1cc(COc2ccc(F)c(F)c2)on1 (stereo not drawn) 17.8 µM [inhibitor, full curve, poor fit]

Potency, active:
O=C(CSc1n[nH]c(-c2ccccc2)n1)c1ccc(O)c(O)c1 63.1 µM, COCCNc1cc(N2CCN(C3CCCCC3)CC2)c2noc3c2c1C(=O)c1ccccc1-3 50.1 µM, C#CCOCCOCCOCCNc1nc(N2CCN(C(=O)[C@H](CCCN=C(N)N)n3cc(C(N)[C@@H](C)CC)nn3)CC2)nc(N2CCN(C(=O)[C@H](CC(N)=O)n3cc([C@@H](N)C(C)C)nn3)CC2)n1 (stereo partly drawn) 79.4 µM, CC(=O)N1CCN(C(=S)NC(=O)c2ccc(F)cc2)CC1 1.58 µM, COc1cc(OC)c2c(c1C(CCN1CCOCC1)c1ccc(N(C)C)cc1)OC(=O)CC2c1ccc(N(C)C)cc1 (stereo not drawn) 11.2 µM and 6.31 µM, CCN(CC)c1ccc(NC(=O)c2cnc3ccccn3c2=O)c(C)c1 44.7 µM, COc1ccc(CCn2c(-c3ccc(C(C)(C)C)cc3)n[nH]c2=S)cc1OC 17.8 µM, CCOC(=O)C1(C)NC(c2cccs2)C2C(=O)N(c3ccc(OC)cc3)C(=O)C21 (stereo not drawn) 10 µM, C#CCOCCOCCOCCNc1nc(N2CCN(C(=O)[C@H](CCC(=O)O)n3cc([C@@H](N)CO)nn3)CC2)nc(N2CCN(C(=O)[C@H](CCC(=O)O)n3cc([C@@H](N)CCSC)nn3)CC2)n1 79.4 µM, C/C=C/c1ccc(OCC(O)CN(C)Cc2ccc(SC)cc2)c(OC)c1 (stereo not drawn) 3.98 µM

Activity change, negative = inhibition, inactive:
O=C(CCCn1c(=S)[nH]c2ccsc2c1=O)NCCc1ccccc1 7%, COc1ccc(C2=NN(C(=O)CSc3nnc(-c4ccccc4F)o3)C(c3ccco3)C2)cc1 (stereo not drawn) -15.6%, CC1(C)CC(=O)C2=C(C1)N(Cc1ccco1)C(=O)C2(NC(=O)C1CCCCC1)C(F)(F)F (stereo not drawn) -2.24%, Cc1ccc(C(=O)Nc2nnc(SCc3cc(=O)c4c(C)ccc(C)c4[nH]3)s2)cc1 -31.5%, CC(=O)Nc1ccc(S(=O)(=O)Nc2cccc3[nH]ncc23)cc1 -5.69%, CCCCCCOc1ccc(N2C(=O)CC(NCc3ccc(S(N)(=O)=O)cc3)C2=O)cc1 (stereo not drawn) -3.74%, COc1ccc(N2CCN(C(=O)CSc3nc4nc(C)cc(C)n4n3)CC2)cc1 -12.8%, Cc1onc(-c2c(F)cccc2Cl)c1C(=O)N[C@@H]1C(=O)N2C(C(=O)O)C(C)(C)S[C@H]12 (stereo partly drawn) -13.1%, O=C(COc1ccccc1)N1N=C(c2cccnc2)CC1(O)C(F)(F)F (stereo not drawn) -11.4%, CN(C(=O)COC(=O)/C=C/c1ccc(C(F)(F)F)cc1)C1CCS(=O)(=O)C1 (stereo not drawn) -8.16%, CCOC(=O)c1c(NC(=O)CSc2nnc(-c3ccccc3C)n2C)sc(C(C)=O)c1C -31%, CCCOc1ccc(CSC2=NCCN2)cc1[N+](=O)[O-] 10.9%, COc1cc(C(=S)N2CCCC2)ccc1OCC(N)=O -17.2%, O=C(c1ccccc1Oc1ccccc1)N1CCN(c2ccccc2)CC1 -35.7%, O=C(O)c1ccc(-n2nncc2-c2ccco2)cc1 7.39%, COc1ccccc1NC(=O)CCS(=O)(=O)c1ccccc1 -1.4%, CCOc1ccc(NC(=O)CN2CCSc3ccc(S(=O)(=O)N4CCCC4)cc32)cc1 -27.5%, C#CCOCCOCCOCCNc1nc(N2CCN(C(=O)[C@H]([C@@H](C)CC)n3cc(CCC(=O)O)nn3)CC2)nc(N2CCN(C(=O)[C@H](CCCCN)n3cc(CCCC)nn3)CC2)n1 -6.52%, CCOC(=O)Cn1c(=O)n(CC2CCCO2)c2nc(-c3ccc(CC)cc3)nc(C(N)=O)c21 (stereo not drawn) -6.71%, CCCCc1cc(=O)oc2cc(C)cc(OCC(=O)N3C[C@H]4C[C@@H](C3)c3cccc(=O)n3C4)c12 -17%, Cc1nn(C2CCS(=O)(=O)C2)c2nc(C3CC3)cc(C(=O)Nc3cccc(C#N)c3)c12 (stereo not drawn) -6.8%, CC(C)NC(=O)CSc1nc(Cc2cccs2)nc2ccccc12 -31.5%, O=C(CN1C(=O)c2cccc([N+](=O)[O-])c2C1=O)N1CCN(S(=O)(=O)c2ccccc2)CC1 8.82%, COc1ccc(/C=N/NS(=O)(=O)c2ccc(C)cc2)cc1OC(=O)c1ccccc1 -32%, Cc1nc2c(c(C)nn2C(C)(C)C)c(C)c1CCC(=O)Nc1ccc(Br)cc1Br -1.01%
